Source: publication PMC12136788
Some of the results follow.

T1: UNK ZnF1-3 (human, UniProt Q9C0B0 31-174)
T1 sequence: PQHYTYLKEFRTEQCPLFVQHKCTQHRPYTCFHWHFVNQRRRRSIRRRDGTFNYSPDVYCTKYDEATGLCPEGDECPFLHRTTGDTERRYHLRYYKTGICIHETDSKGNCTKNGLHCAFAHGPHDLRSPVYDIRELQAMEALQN

B1: chr7:19721593:19721594:+_ENSMUSG00000050428_ENSMUST00000053109|mus_mus|FALSE|FALSE (ssRNA)
RNA: GGGAGUUCUACAGUCCGACGAUCAUUGGGUAAGUUGCCAUCUGGUGAAUGGGGCUCUCGGACAUUGGAGAUUCGGAAAGCUAUACGCACCUCGCCGGGCCCAGGGCCUGGCCGUUCCUCCUUGCGGAGACCCUUGGUAGGAGGCAACAGAGGAUUGAGCAUCA
B2: chr7:141450121:141450122:+_ENSG00000106028_ENST00000265304|hu_mus|hu_hu_hu_mus_True|18_98 (ssRNA)
RNA: GGGAGUUCUACAGUCCGACGAUCUCAUCCGUUCUAUUCCUUCUCUUUUGUCUGGUCACUCAGAAAUAUAAUGUUAUCAGCUAUGAUUGUUGUUGCUUGCCGCCUCACAUUGUUUUUAUCCAUGUAUUCGCCAUAGUCCACUUUCAACAGAGGAUUGAGCAUCA
B3: chr11:106117246:106117247:-_ENSMUSG00000020706_ENSMUST00000021048|mus_mus|motif|central (ssRNA)
RNA: GGGAGUUCUACAGUCCGACGAUCGCAGGCCUUACAAGUUAAAAGUAGAGGCUAGGAAGUAGAGUGCAAUAACUCGUAUCCGGAACGCUAGGAAGCAUCAACCAGAAGUUCUAUAUCUCUUCACAAAACUAGUGACCUCCAGUACAACAGAGGAUUGAGCAUCA
B4: 59272170_59272290_945_CDS_ENSMUSG00000026024_ENSMUST00000027178|mouse|control|control (ssRNA)
RNA: GGGAGUUCUACAGUCCGACGAUCAAACACCUCUCCCUGCUCAUCCAGUGCCUCUGGGUGAGGGCUGGGAGCAGGGCUGGCAUGCUUUUCUGCUUGAGACUCGGACAAUGUCACACCUAAAGGGCAGCAAUGGCUGUCCGAUAUCAACAGAGGAUUGAGCAUCA
B5: chr13:100200628:100200629:-_ENSMUSG00000052727_ENSMUST00000064762|perfect_dup|FALSE|FALSE (ssRNA)
RNA: GGGAGUUCUACAGUCCGACGAUCGUCUCCGGGUGUCUUCCCUCCGCUGUCUUUCUCCACACUAGAUGUAGUCAAAUCUCUAUUCAAGGCCAGAUGAUGUUGCAUUGUAUCAAAUAGCAUUGAGGAGCGGAAGCCAUAGGGCUCCAACAGAGGAUUGAGCAUCA
B6: chr3:179287964:179287965:+_ENSG00000136518_ENST00000429709|hu_hu|hu_hu_hu_mus_True|48_58 (ssRNA)
RNA: GGGAGUUCUACAGUCCGACGAUCCUUGAGUGGUGAGAUGGCCUCCAUGUUCUCCCUGGGCACGCGGAGGGCAUUGGUAUCUAUGUAGUAGGUGGGACCGCCCUGCUUGCCUUUGUCACCAUCAAUCUCCAUCAUUGUACUUCCCAACAGAGGAUUGAGCAUCA
B7: chr2:17927185:17927186:-_ENSG00000163029_ENST00000351948|hu_mus|FALSE|FALSE (ssRNA)
RNA: GGGAGUUCUACAGUCCGACGAUCUUUAUCAAAAUCUUCCAGUUCUUCUUGUCUUGGUCUUUUAGCAUUUUCAGGAGAGCAGAAAUUUUCUUCCUUUCUUUUGGCCAUCAGAUCUCCAACAAGUCGCGGUCACCCCGGGGAAGCCAACAGAGGAUUGAGCAUCA
B8: chr19:16212804:16212805:+_ENSG00000167460_ENST00000300933|hu_mus|hu_hu_hu_mus_False|1_18 (ssRNA)
RNA: GGGAGUUCUACAGUCCGACGAUCAACAAUUCUGGAGUGAAGGAAAGAUGUAACAUGGAACAGCAUUAAAGCUCAGUCAGAAGGCACAUGGGCAACAAUGAUCACCCCAGCAUUCUCCUACGUUGACCUUAAAGACAGAUGUUUCAACAGAGGAUUGAGCAUCA
B9: chr17:62499630:62499631:-_ENSG00000108654_ENST00000581693|hu_hu|FALSE|FALSE (ssRNA)
RNA: GGGAGUUCUACAGUCCGACGAUCGAGCACCACCGUAGAUACAAGUAGACUUCAAGCGACAUGCUCUACAAUAUUCAGCAGCUACUUGCUGCACCUGUUGGGCCAGUUCCCGAGUUGGUGCCAGCACCAAACAAAUAGGCCCAUCAACAGAGGAUUGAGCAUCA
B10: 93044054_93044174_1553_3pUTR_ENSMUSG00000027217_ENSMUST00000111265|mouse|control|control (ssRNA)
RNA: GGGAGUUCUACAGUCCGACGAUCACCCUCAGCCAGCGGGAGCAGGGACCGCUUCGCUCUCCAGCAGAUGGUGCUGCAGAGUCUGUCCUUGUGUUGUGAAAAGCCGGCUCCUUGGGGCCUGAGGACCGGGCUCCUCCUCCAGGACAACAGAGGAUUGAGCAUCA
B11: chr7:151048522:151048523:+_ENSG00000013374_ENST00000566856|hu_mus|hu_hu_hu_mus_True|88_98 (ssRNA)
RNA: GGGAGUUCUACAGUCCGACGAUCCUGUUUCUUAUUUAUGACAAUUUUGAUAUAAUUUUCUUGAAAUCCGAAAGUUUCAGCUAUUUGACACCUCAGGUCUCUACCAGUGACAUGCAAGCGGGUCUCCAACAAGCUUUUCUUAUCCAACAGAGGAUUGAGCAUCA
B12: 86457377_86457497_3171_CDS_ENSMUSG00000013033_ENSMUST00000141158|mouse|control|control (ssRNA)
RNA: GGGAGUUCUACAGUCCGACGAUCGACGCGGCUAGACUCCUUAUUGAUAGAUGCUGCGAUGACCUGUGAGUUGACCACCAGGGAGGCACCUCCAGGGCCACCUGUCCCUGCCUCACCUGCCAGCUUCACUGUGGCAUUCUCCGUCAACAGAGGAUUGAGCAUCA
B13: chr5:10264850:10264851:+_ENSG00000150753_ENST00000503026|hu_mus|FALSE|FALSE (ssRNA)
RNA: GGGAGUUCUACAGUCCGACGAUCAAAUGGUACAGUUUAUUCUUCAGAUUCUCCAGGCUUACGGAUGUCAUCAAUCUUCAGAAUCAUCCUAACCAUCUGGGUGGCAAGAGAGAUCUGCUGCUUUUUGCCAAUCAAGGUUUCUAUCAACAGAGGAUUGAGCAUCA
B14: 27456595_27456914_3540_CDS_ENSG00000084774_ENST00000264705|human|control|control (ssRNA)
RNA: GGGAGUUCUACAGUCCGACGAUCCACCACACCAUCAGAGGCCACGGCAUCCACGUCAAUCUCCUUAGCCUCCUGGAUGAACUUGGAGAUGACCACGGGAUGCUCUUUGGAGACGGCUGCUGCGCUGCUCAGGAAGCGCUCCAGCAACAGAGGAUUGAGCAUCA
B15: chr12:41043843:41043844:-_ENSMUSG00000055917_ENSMUST00000069637|mus_hu|FALSE|FALSE (ssRNA)
RNA: GGGAGUUCUACAGUCCGACGAUCUUUGGAUUUGAACUUCACAUGGCAGCCAUAACAUCUGCAUUGGUGAACUUGCCUCCGAAUAAAAUUGACCAGUUUCACUUGCUGAUAGAAAUUUAAUCCAAGUUCUGACUUUAUUUUGAGCAACAGAGGAUUGAGCAUCA
B16: 111873916_111874186_6390_CDS_ENSMUSG00000018707_ENSMUST00000018851|mouse|control|control (ssRNA)
RNA: GGGAGUUCUACAGUCCGACGAUCGCCUGCACUUACAAGCACACUCUUCAAAGCCCGAAGCCCAAAGUCAUAAUGGCUUUGAGAAGACAGUUGCUCAUCACACAGUUUGAAGAACGGGACGAUCUUGUUGGCAAGGACCUCAGCCAACAGAGGAUUGAGCAUCA
B17: chr16:94690093:94690094:+_ENSMUSG00000040785_ENSMUST00000117648|mus_hu|mus_mus_mus_hu_True|18_88 (ssRNA)
RNA: GGGAGUUCUACAGUCCGACGAUCGGGCUGGGAUGACGGACACACAGAUCUUCCCAGAGGGGGAAAAAGUCUUAGUCGAUACUAAUUAAAAAGUGUUAAUGAUUUUUGAAAAUCAGAUGUAGAUUAAAAAAGAUGAAAAGCAAACAACAGAGGAUUGAGCAUCA
B18: chr20:57570089:57570090:+_ENSG00000101158_ENST00000344018|hu_hu|motif|central (ssRNA)
RNA: GGGAGUUCUACAGUCCGACGAUCAAAAUUUACUUAUUACUUGUUCUUAGCAAAUUAAGACAAUUACAAUAAAACAUCAGCGGACUGGGUUCUUGUGAGAAAACUGAGGUCAGCUUGGAAAGGAGUUCCCCGAGUGGAGUUCCCCAACAGAGGAUUGAGCAUCA
B19: chr5:145543945:145543946:-_ENSG00000133706_ENST00000545646|hu_mus|motif|central (ssRNA)
RNA: GGGAGUUCUACAGUCCGACGAUCCUGAACGGCCAGUGGUGGGAAAUAAUCAAGCCAGUGCUCUGCUUCAGAAAACUUCACGGUGUCGUCAUCAGAGAGCCCAAGGGAUUUCAUAAUGUCCCACUGGUACUUAGAAGAUCCUGCCAACAGAGGAUUGAGCAUCA
B20: 61654354_61654474_902_CDS_ENSG00000171316_ENST00000423902|human|control|control (ssRNA)
RNA: GGGAGUUCUACAGUCCGACGAUCCUGGUAGGGGGCUCGUAUCUGGUCUGGUACCUGAACAGCCCUGGGGCCCCACAUGGAGCUGCUGUCCACAAAGGAUUGCCCAUGCCUCUCAUUCUGCAUGCCAGGGUAGACACCCAUCUGCAACAGAGGAUUGAGCAUCA
B21: chr3:167401952:167401953:-_ENSG00000114209_ENST00000497056|hu_hu|motif|central (ssRNA)
RNA: GGGAGUUCUACAGUCCGACGAUCAAAAGAAUGAUAAUAGCAAAAGUGAUGCAAAAUCUUCAGUGUGAGAUUAUGAUUAAGCGGCAUUUUACAAAAAUAUGGUGUAAGAUGGCAAUAAUCCCAUUCAACAUCCUGGAUUAGAUCCAACAGAGGAUUGAGCAUCA
B22: chr9:56975896:56975897:+_ENSMUSG00000042557_ENSMUST00000167715|mus_mus|FALSE|FALSE (ssRNA)
RNA: GGGAGUUCUACAGUCCGACGAUCACAUCAAAGCAUAUUUCUUUAAUAAAAAAUUGACAGUAUGUACAUUAUUUACAAAAAAGAAAAACCAAGUUAAAAUUGUGUGUGUGUGCAUGUGUGCGUGUGAGAGAGAAGCUGGUGGAUCAACAGAGGAUUGAGCAUCA

target: T1, UNK ZnF1-3; assay: nsRBNS (natural sequence RNA bind-n-seq); RBNS binding buffer (assumed for nsRBNS): 25 mM Tris pH 7.5, 150 mM KCl, 3 mM MgCl2, 0.01% Triton X-100, 500 ug/ml BSA, 20 U/ml SUPERase-In, 4 C; UNK is unkempt and MSI1 is Musashi-1; names of the RNAs are library labels; protein concentration not given here; high values mean tight binding

| Binder | binding signal [enrichment R] |
| --- | --- |
| B1 | 0.837 |
| B2 | 0.373 |
| B3 | 1.8 |
| B4 | 0.459 |
| B5 | 1.14 |
| B6 | 0.639 |
| B7 | 0.711 |
| B8 | 1.31 |
| B9 | 0.907 |
| B10 | 0.543 |
| B11 | 1.24 |
| B12 | 0.698 |
| B13 | 0.744 |
| B14 | 1.34 |
| B15 | 0.904 |
| B16 | 1.27 |
| B17 | 2.72 |
| B18 | 1.35 |
| B19 | 1.08 |
| B20 | 1.12 |
| B21 | 0.902 |
| B22 | 2.96 |
